Data as given in PubChem BioAssay AID1745853 (National Center for Advancing Translational Sciences (NCATS), 2022).
This is one part of the list. The main result of the screen is listed elsewhere. These columns were measured beside it and carry no call.

Experiments:
Test in all cases: Primary Screen for Target Class Profiling of Small Molecule Inhibitors of Methyltransferases
[1] = target: Glycine N-methyltransferase (Homo sapiens) (UniProt Q14749); conditions: purified enzyme, MTase-Glo SAH luminescence; measured here: GNMT inhibition; at 40 µM; stronger effect = lower value
Description: (§1) PI: Matthew D. Hall Ph.D. and Quinlin M. Hanson Ph.D.
(§2) National Center for Advancing Translational Sciences (NCATS)
(§3) National Institute of Health (NIH), Rockville, MD
(§4) Target class profiling (TCP) is a chemical biology approach amenable to investigating understudied biological targets. TCP is achieved by developing a generalizable assay platform and applying it to screen a curated set of compound libraries against representative members of a target class. Small molecule methyltransferases (SMMTase) are a subclass of methyltransferase that act on metabolites to modulate signaling pathways, metabolize xenobiotics, or balance the available methyl pool. We screened four curated libraries totaling 27,574 unique compounds against the SMMTases nicotinamide N-methyltransferase (NNMT), phenylethanolamine N-methyltransferase (PNMT), histamine N-methyltransferase (HNMT), glycine N-methyltransferase (GNMT), catechol O-methyltransferase (COMT), and guanidinoacetate N-methyltransferase (GAMT). The data generated by this TCP can be leveraged for informed tool molecule development. For example, in the associated publication we identified a chemotype of HNMT-selective inhibitors. Additionally, we identified a putative SMMTase-selective inhibitor with potential as a tool molecule for studying broader methyltransferase biology.
(§5) High-through put screening assays were developed at the National Center for Advancing Translational Science (NCATS) for the enzymes NNMT, PNMT, HNMT, GNMT, COMT, and GAMT. Enzymatic activity was measured as a function of SAM cofactor conversion using the MTase Glo kit (Promega) for all enzymes. All assays were performed in 1536-well format with substrates and SAM concentrations at KM values. Enzyme concentration and assay timing were optimized for 10-20% SAM conversion. Initial screening of 27,574 compounds was done as single-point assays using the highest compound concentration (40 uM). […] These compounds were replated in 11-point dose response and assayed against NNMT, PNMT, HNMT, GNMT, COMT, GAMT, and a counter-assay. The IC50 and efficacy (maximal response) values were determined for each dose-response curve. These values are also accounted for in the area under the curve (AUC) values.
(§6) PROTOCOL TABLE (as described by Inglese J, Shamu CE and Guy RK. 2007)
(§7) SEQUENCE No. (e.g., 1, 2, 3, etc.); […] (e.g., Cells, Incubation, Reagent, etc.); VALUE; DESCRIPTION.
(§8) 1; Reagent; 2 uL; SMMTase Enzyme (2x) in reaction buffer, columns 1- 48.
(§9) 2; Reagent; 1 uL; SAM (4x) in reaction buffer, columns 1-48.
(§10) 3; Controls; 23 nL; DMSO in column 4; sinefungin in DMSO (0 uM - 40 uM) in 7-point 1:2 dilution series (n = 2) in column 2.
(§11) 4; Compounds; 23 nL; Columns 5-48.
(§12) 5; Reagent; 1 uL; Substrate (4x) in reaction buffer, columns 2-48.
(§13) 6; Time; 20-30 min; Incubation.
(§14) 7; Reagent; 1 uL; MTase-Glo reagent (5X), columns 1-48.
(§15) 8; Time; 30 min; Incubation.
(§16) 9; Reagent; 5 uL; MTase-Glo Detection reagent, columns 1-48.
(§17) 10; Time; 30 min; Incubation, luminescence evolution.
(§18) 11; Detection; Luminescence; ViewLux uHTS Microplate Imager (PerkinElmer).
(§19) NOTES (numbers refer to Sequence numbers above)
(§20) 1, 2, 5. White Medium Binding Greiner 1536-well plates (Cat #789175-F, Greiner Bio-One, Monroe, NC); Reaction buffer: 50 mM Tris, pH 8.0, 3 mM MgCl2, 1 mM EDTA, 50 mM NaCl, 1 mM DTT, and 0.1 mg/mL BSA. Evaporation was prevented by covering assay plates with metal lids containing holes to allow gas diffusion.
(§21) 1. Six SMMTase were profiled: HNMT, GNMT, PNMT, COMT, NNMT, GAMT
(§22) 5. The corresponding substrate was used for each enzyme: HNMT - 5.3 uM Histamine; GNMT - >500 uM Glycine; PNMT - 16.2 uM Norephinephrine; COMT - 13.7 uM Norephinephrine; NNMT - 3.8 uM Nicotinamide; GAMT - 2.5 uM Guanidinoacetate.6, 8, 10. Room temperature
(§23) 6. Final reaction conditions: 10 nM COMT, 5 uM SAM, 15 uM norepinephrine, 50 mM Tris, pH 8.0, 3 mM MgCl2, 1 mM EDTA, 50 mM NaCl, 1 mM DTT, and 0.1 mg/mL BSA; refer to tables 2 and S1 for specific timing.
8. […]

[2] = target: Guanidinoacetate N-methyltransferase (Homo sapiens) (UniProt Q14353); conditions: purified enzyme, MTase-Glo SAH luminescence; measured here: GAMT inhibition; at 40 µM; stronger effect = lower value
Description: as §1, §2, §3, §4, §5, §6, §7, §8, §9, §10, §11, §12, §13, §14, §15, §16, §17, §18, §19, §20, §21, §22, §23
8. […]

[3] = target: Histamine N-methyltransferase (Homo sapiens) (UniProt P50135); conditions: purified enzyme, MTase-Glo SAH luminescence; measured here: HNMT inhibition; at 40 µM; stronger effect = lower value
Description: as §1, §2, §3, §4, §5, §6, §7, §8, §9, §10, §11, §12, §13, §14, §15, §16, §17, §18, §19, §20, §21, §22, §23
8. […]

[4] = target: Nicotinamide N-methyltransferase (Homo sapiens) (UniProt P40261); conditions: purified enzyme, MTase-Glo SAH luminescence; measured here: NNMT inhibition; at 40 µM; stronger effect = lower value
Description: as §1, §2, §3, §4, §5, §6, §7, §8, §9, §10, §11, §12, §13, §14, §15, §16, §17, §18, §19, §20, §21, §22, §23
8. […]

[5] = target: Phenylethanolamine N-methyltransferase (Homo sapiens) (UniProt P11086); conditions: purified enzyme, MTase-Glo SAH luminescence; measured here: PNMT inhibition; at 40 µM; stronger effect = lower value
Description: as §1, §2, §3, §4, §5, §6, §7, §8, §9, §10, §11, §12, §13, §14, §15, §16, §17, §18, §19, §20, §21, §22, §23
8. […]
% is scaled to controls: 0 for no effect and ±100 for the full control effect.

| SMILES | activity change, negative = inhibition [1] [%] | activity change, negative = inhibition [2] [%] | activity change, negative = inhibition [3] [%] | activity change, negative = inhibition [4] [%] | activity change, negative = inhibition [5] [%] |
| --- | --- | --- | --- | --- | --- |
| COc1cc(O)c2c(c1)/C=C/C[C@@H](O)[C@@H](O)C(=O)CCC[C@H](C)OC2=O | -22.5 | -9.05 | -37.2 | -19.4 | -15.9 |
| CC(C)CCNC(=O)N1Cc2ccccc2-n2cccc2C1c1ccc(F)cc1 (stereo not given) | -3.51 | 1.11 | -5.9 | -9.94 | -0.979 |
| COCC1CN(C)CC12CCN(Cc1cccnc1)CC2 (stereo not given) | -0.285 | 2.48 | -1.01 | -3.31 | -14.1 |
| CC(C)CCNC(=O)N1Cc2ccccc2-n2cccc2C1c1ccccc1 (stereo not given) | 6.75 | 0.158 | 3.32 | 2.32 | 6.58 |
| C=C1[C@@H](O)[C@]2(O)OC[C@]34C2[C@]2(C)C(C[C@H]3OC(=O)[C@H](O)[C@@]14O)C(C)=CC(=O)[C@H]2O (stereo not given in full) | -0.941 | -9.58 | -3.9 | -19.7 | -1.26 |
| C/C=C(/C)C(=O)O[C@H]1C(C)=C2[C@H]([C@@H]1OC(=O)CCCCCCC)[C@@](C)(OC(C)=O)C[C@H](OC(=O)CCC)[C@@]1(O)[C@H]2OC(=O)[C@@]1(C)O | 0.853 | 1.19 | 3.11 | -17.6 | -2.6 |
| CCOCCCNC(=O)N1Cc2ccccc2-n2cccc2C1c1cc(F)cc(F)c1 (stereo not given) | 14.1 | 2.63 | 9.8 | 4.15 | 8.84 |
| Cc1ccc(NC(=O)N2Cc3ccccc3-n3cccc3C2c2ccccc2C)cc1Cl (stereo not given) | 5.7 | 0.063 | 1.86 | 3.81 | -0.001 |
| CCN1CCCN(C(=O)c2cccnc2)CC12CCOCC2 | 0.371 | -2.8 | 1.83 | -6.37 | 12.1 |
| CCC1c2cccn2-c2ccccc2CN1C(=O)Nc1cc(C)ccc1C (stereo not given) | 4.16 | 2.19 | 7.23 | 6.4 | -0.109 |
| CC(=O)OC12C(O)C(C)C3(O)C4C=C(C)C(=O)C4CC(CO)=CC3C1C2(C)C (stereo not given) | 0.691 | 1.24 | 10.1 | -11.7 | -5.44 |
| Cc1ccc(NC(=O)N2Cc3ccccc3-n3cccc3C2c2ccc(N(C)C)cc2)cc1F (stereo not given) | 9.79 | 0 | -5.23 | 5.66 | 7.5 |
| c1ccc([C@@H]2C[C@H]2NC2CCNCC2)cc1 | -7.86 | -15.8 | -6.98 | -17.6 | -20.5 |
| CCCCCC[C@H]1C(=O)O[C@H](C)[C@H](NC(=O)c2cccc(NC=O)c2O)C(=O)O[C@@H](C)[C@@H]1OC(=O)CC(C)C | – | 0.319 | – | -37.7 | -18.7 |
| CCCC[N+]1(C)C2CC(OC(=O)[C@H](CO)c3ccccc3)CC1C1OC12 (stereo not given in full) | -4.25 | 1.09 | -0.777 | -5.74 | 2.81 |
| CC(C)C1c2cccn2-c2ccccc2CN1C(=O)Nc1ccccc1 (stereo not given) | -3.35 | 0 | 10.2 | 10 | 6.31 |
| COc1ccc(C2c3cccn3-c3ccccc3CN2C(=O)Nc2ccccc2C)cc1OC (stereo not given) | 7.85 | 1.42 | -0.011 | 2.34 | 6.48 |
| CCCN(CCC)[C@H]1CCc2c(F)ccc(O)c2C1 | 0.4 | 8.19 | -8.69 | -3.64 | 5.82 |
| CC1c2cccn2-c2ccccc2CN1C(=O)Nc1ccccc1 (stereo not given) | 4.46 | 5.09 | 4.75 | -2.23 | 0.252 |
| CSCC(=O)Nc1ccc2n(c1=O)C[C@H]1C[C@@H]2CN(C(=O)CSCC(=O)O)C1 | -3.56 | -8.92 | -6.5 | -10.1 | -10.5 |
| CCOC(=O)C1CCC(CNC(=O)N2Cc3ccccc3-n3cccc3C2c2ccccc2)CC1 (stereo not given) | 11.9 | 2.92 | 6.88 | 5.62 | 9.27 |
| c1ccc2c(c1)OCC(C1=NCCN1)O2 (stereo not given) | 1.67 | 8.18 | 10.9 | -6.77 | -5.53 |
| C[C@]12CC[C@H](O)CC1=CC[C@@H]1[C@@H]2CC[C@]2(C)C(=O)CC[C@@H]12 | -0.878 | 6.48 | 8.64 | -10.1 | 4.15 |
| N#Cc1ccccc1S(=O)(=O)N1C[C@@H]2C[C@H](C1)c1ccc(-c3ccc(Cl)cc3)c(=O)n1C2 | -15.6 | -9.96 | -7.02 | -19.8 | -10.7 |
| CN(C)c1ccc(C2c3cccn3-c3ccccc3CN2C(=O)Nc2cc(F)ccc2F)cc1 (stereo not given) | 15.3 | 2.33 | 4.92 | 7.46 | 7.98 |
| C[C@H]1O[C@@H](O[C@H]2C[C@@H](O)[C@]3(CO)C4C(CC[C@]3(O)C2)[C@@]2(O)CC[C@H](C3=CC(=O)OC3)[C@@]2(C)C[C@H]4O)[C@@H](O)[C@@H](O)[C@H]1O (stereo not given in full) | 6.46 | – | 11 | – | – |
| COc1cccc(NC(=O)N2Cc3ccccc3-n3cccc3C2c2ccccc2C)c1 (stereo not given) | -1.9 | 0.081 | -3.76 | -18.5 | -7.14 |
| CCOC(=O)c1cccc(NC(=O)N2Cc3ccccc3-n3cccc3C2c2ccccc2Cl)c1 (stereo not given) | 10.2 | 0 | 1.76 | 2.35 | 4.04 |
| Cc1cc([C@@H]2CCCN2C)on1 | -10.7 | -0.28 | -4.17 | -8.61 | 0.749 |
| CCOc1ccc(C2c3cccn3-c3ccccc3CN2C(=O)Nc2cc(Cl)ccc2OC)cc1 (stereo not given) | -8.49 | -3.21 | -4.54 | -7.7 | -6.29 |
